According to the supplement of paper PMC12217912:
Some of the results follow. The full chains were built here from the parent and the listed change. Values near 0.05 are background.

B1: TEV protease; numbered along this chain (parent)
chain: MGESLFKGPRDYNPISSSICHLTNESDGHTTSLYGIGFGPFIITNKHLFRRNNGTLVVQSLHGVFKVKDTTTLQQHLVDGRDMIIIRMPKDFPPFPQKLKFREPQREERICLVTTNFQTKSMSSMVSDTSCTFPSGDGIFWKHWIQTKDGQCGSPLVSTRDGFIVGIHSASNFTNTNNYFTSVPKNFMELLTNQEAQQWVSGWRLNADSVLWGGHKVFMVKPEEPFQPVKEATQL

Variants of: B1
Assay: raw area under fraction-flipped curve 0-4 h after induction (AUC4h, not background-subtracted), DNA-recorder readout of cleavage of the substrate (dimensionless); higher = more cleavage of the substrate by the protease variant
Conditions: temperature: 34 °C; time window: 0-4 h after rhamnose induction
Method: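 In vivo DNA recorder in E. coli TOP10(DE3) ΔrhaA at 34 °C. Each TEVp single-site mutant (parent TEVp 0) is paired with a single-site variant of the 7-mer TEVs (canonical ENLYFQ|S). The substrate sits between flexible linkers in a Bxb1-sfGFP-TEVs-SsrA fusion, so cleavage stabilises Bxb1 and speeds flipping of a recombination array, read by NGS. The value is the raw area under the fraction-flipped curve over 0-4 h after rhamnose induction (AUC4h), with ≥20 reads per time point. It is not background-subtracted; inactive controls average about 0.047.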
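Note: Bxb1 expression induced with 0.2% (w/v) L-rhamnose at OD600 near 0.5, cultures sampled hourly, flipped fraction per protease–substrate barcode pair counted by paired-end Illumina sequencing.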

Row | Variant | area with substrate ENLYFQF | area with substrate ENLYFQI | area with substrate ENLYFQL | area with substrate ENLYFQN | area with substrate ENLYFQS | area with substrate ENLYFQT | area with substrate ENLYFQV | area with substrate ENLYFQG | area with substrate ENLYFQR | area with substrate ENLYFQW
1 | C131I | 0.0805 | 0.0541 | 0.0602 | 0.0765 | 0.113 | 0.0974 | 0.0649 | – | – | –
2 | C131K | 0.088 | – | 0.0581 | 0.089 | 0.11 | 0.0758 | – | 0.0733 | 0.0631 | 0.0657
3 | D91E | 0.0649 | – | 0.0749 | – | 0.106 | – | – | 0.105 | – | –
4 | Q194I | 0.0531 | – | – | – | 0.0939 | 0.0757 | 0.0709 | – | 0.0905 | –
5 | L235Y | 0.0939 | 0.045 | – | 0.0865 | 0.102 | – | – | – | – | –
6 | V210E | 0.059 | – | – | – | 0.0816 | – | – | – | – | –
7 | F173T | 0.0496 | 0.0662 | 0.0792 | – | 0.093 | – | 0.0666 | – | 0.0807 | –
8 | P228S | – | – | – | – | 0.107 | – | 0.0571 | 0.116 | – | 0.0658
9 | E103P | – | – | 0.0587 | 0.0593 | 0.105 | – | – | 0.0871 | 0.0264 | 0.0363
10 | W141N | – | 0.0443 | 0.0595 | – | 0.0571 | – | – | 0.0307 | – | 0.0588
11 | R87N | – | – | – | – | 0.106 | 0.053 | – | 0.0832 | 0.0421 | –
12 | R87V | 0.0687 | – | – | 0.0977 | 0.0785 | 0.0464 | 0.0633 | – | – | –
13 | T114N | – | – | 0.0614 | 0.109 | 0.108 | 0.0681 | – | 0.0947 | – | 0.071
14 | F101S | 0.0452 | – | 0.041 | – | 0.0527 | 0.0456 | – | 0.142 | – | –
15 | F101E | – | 0.0523 | 0.0468 | – | 0.0502 | 0.0369 | 0.0491 | 0.0453 | – | 0.0654
16 | F101H | – | 0.0554 | – | – | 0.0486 | – | 0.038 | 0.0453 | 0.0475 | –
17 | G2S | 0.0923 | – | – | – | 0.14 | 0.0716 | – | – | – | –
18 | G2Y | 0.115 | 0.0645 | 0.046 | 0.115 | 0.144 | 0.0682 | – | 0.141 | – | 0.097
19 | G2N | 0.125 | – | – | – | 0.14 | – | 0.053 | – | 0.0628 | –
20 | T181I | 0.0472 | – | – | – | 0.0706 | – | – | 0.0824 | – | 0.0572
21 | T119L | 0.07 | – | 0.0344 | – | 0.102 | – | – | – | – | –
22 | T233W | 0.0746 | – | – | 0.0689 | 0.0925 | – | 0.0562 | – | – | –
23 | V229R | 0.0104 | – | 0.0606 | 0.0832 | 0.105 | – | 0.0701 | – | 0.0455 | –
24 | S201Q | – | – | – | – | 0.0995 | 0.0671 | – | 0.0763 | – | –
25 | V165M | 0.0554 | – | 0.0511 | 0.0667 | 0.0759 | – | – | – | 0.047 | –

Same assay, conditions: temperature: 34 °C; time window: 0-4 h after rhamnose induction

Row | Variant | area with substrate ENLYFQH | area with substrate ENLYFQK | area with substrate ENLYFQM | area with substrate ENLYFQP | area with substrate ENLYFQY | area with substrate ENLYFQQ
26 | Q194I | 0.0817 | – | – | – | – | –
27 | L235Y | – | 0.0644 | – | – | – | –
28 | V210E | – | 0.0628 | – | – | – | –
29 | F173T | – | – | 0.0694 | 0.058 | 0.0568 | –
30 | P228S | – | 0.0644 | 0.127 | – | 0.054 | –
31 | W141N | – | – | 0.0536 | – | 0.0213 | –
32 | R87V | – | – | 0.0865 | – | 0.059 | –
33 | T114N | 0.0699 | – | 0.0797 | 0.0515 | – | 0.0624
34 | F101S | 0.0562 | – | – | 0.0475 | 0.0355 | –
35 | F101E | – | – | – | – | – | 0.054
36 | G2S | 0.101 | – | 0.104 | – | – | –
37 | G2Y | – | 0.0697 | – | 0.0458 | – | –
38 | G2N | 0.0946 | – | 0.113 | – | – | –
39 | T233W | – | – | 0.109 | 0.0527 | 0.0751 | –
40 | V229R | – | 0.0676 | 0.0931 | – | – | 0.0708
41 | S201Q | 0.0879 | 0.0659 | 0.0824 | – | 0.0706 | –
